Measurements: publication PMC6919601, “Identification of Plasmodium dipeptidyl aminopeptidase allosteric inhibitors by high throughput screening” (PLoS ONE, 2019)
Hit rate of the full screen: of about 110,000 compounds, about 230 (0.21%) showed an effect of 50% or more. The list shows a part of the results.
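Also: 30 min substrate incubation versus DMSO and 10 µM JCP410 controls.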

What follows are compounds tested against DPAP1 (Plasmodium falciparum, UniProt Q8IIJ9) (assay: primary screen, percent inhibition; read by cleavage of a fluorogenic dipeptide substrate; higher = more effect of the substance).
Chain of DPAP1 (Q8IIJ9 whole entry, looked up): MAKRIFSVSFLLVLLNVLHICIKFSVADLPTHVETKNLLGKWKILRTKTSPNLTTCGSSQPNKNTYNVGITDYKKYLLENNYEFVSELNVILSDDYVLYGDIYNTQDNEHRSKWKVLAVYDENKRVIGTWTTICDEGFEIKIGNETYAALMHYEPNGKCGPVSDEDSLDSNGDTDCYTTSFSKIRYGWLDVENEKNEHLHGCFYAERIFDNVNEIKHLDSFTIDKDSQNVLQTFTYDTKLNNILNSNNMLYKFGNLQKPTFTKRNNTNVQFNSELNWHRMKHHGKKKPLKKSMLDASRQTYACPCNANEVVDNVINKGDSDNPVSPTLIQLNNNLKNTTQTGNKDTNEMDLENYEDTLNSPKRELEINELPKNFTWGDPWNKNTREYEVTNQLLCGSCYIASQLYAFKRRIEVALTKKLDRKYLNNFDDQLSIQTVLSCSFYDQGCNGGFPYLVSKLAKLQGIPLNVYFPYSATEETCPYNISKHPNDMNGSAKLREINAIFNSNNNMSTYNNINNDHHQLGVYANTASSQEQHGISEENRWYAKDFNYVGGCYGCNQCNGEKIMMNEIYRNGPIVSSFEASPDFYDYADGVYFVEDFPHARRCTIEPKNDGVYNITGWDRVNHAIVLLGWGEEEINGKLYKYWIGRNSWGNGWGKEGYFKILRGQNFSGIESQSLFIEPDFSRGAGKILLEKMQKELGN
Parameters: species or system P. falciparum D10 trophozoite lysates; single well
In the case of `COc1cc(OC)c(S(=O)(=O)N2CCOCC2)cc1C(=O)Nc1ccc(Br)cc1`, the “% Inhibition @ 10 uM” value is reported as -7.14%. In the case of `CCCCNc1nc2cc(OC)c(OC)cc2c2nc(-c3ccccc3)nn12`, the “% Inhibition @ 10 uM” value is reported as 0.981%. In the case of `C=CCSc1ncc(C#N)c2c1CCCC2`, the “% Inhibition @ 10 uM” value is reported as -2.87%. With `Cc1ccccc1-n1nc2c(c1NC(=O)c1ccc(Br)o1)CS(=O)(=O)C2` the “% Inhibition @ 10 uM” value was -1.12%. `COc1ccc(C2SCC(=O)N2CCc2ccc(OC)c(OC)c2)cc1` (stereo not drawn) was tested, and the “% Inhibition @ 10 uM” value was -0.251%. For `Cc1ccc(N(Cc2ccco2)C(=O)C23CC4CC(CC(C4)C2)C3)cc1`, the “% Inhibition @ 10 uM” value was 0.565%. For `O=C(NC1CCN(Cc2ccccc2)CC1)c1cc2c(Cl)ccc3c2n1CCO3`, the “% Inhibition @ 10 uM” value was 2.65%. `CCCNC(=O)c1cc2c(s1)CS(=O)(=O)C2` was tested, and the “% Inhibition @ 10 uM” value was -9.3%. With `CCc1cccc(C)c1NC(=O)C1C2C=CC(O2)C1C(=O)O` (stereo not drawn) the “% Inhibition @ 10 uM” value was 1.15%. With `CCN(CC)CCNC(=O)NC1(C(F)(F)F)Oc2cc(Cl)c(Cl)cc2O1` the “% Inhibition @ 10 uM” value was 2.06%. With `Cc1cc(C(=O)NCC2CCN(CC(C)C)C2)c2c(C)nn(-c3ccccc3Cl)c2n1` (stereo not drawn) the “% Inhibition @ 10 uM” value was -4.97%. In the case of `Cc1nc(C)n(C)c(=O)c1-c1ccccc1`, the “% Inhibition @ 10 uM” value is reported as 1.83%. With `CN(C)c1ccc(/C=C/c2nnnn2-c2ccccc2)cc1` the “% Inhibition @ 10 uM” value was -4.01%. `O=[N+]([O-])c1ccc(CSc2nc3ccccc3o2)cc1` was tested, and the “% Inhibition @ 10 uM” value was -4.26%. In the case of `CCN(CC)Cc1c(C(C)=O)c2cc(O)ccc2n1-c1ccccc1`, the “% Inhibition @ 10 uM” value is reported as 0.708%. In the case of `CCOC(=O)C1=C(C)N=c2s/c(=C/c3ccc4c(c3)OCO4)c(=O)n2C1c1ccccc1F` (stereo not drawn), the “% Inhibition @ 10 uM” value is reported as 0.997%. `O=C(NCCCc1ccccc1)c1cc2c(Cl)ccc3c2n1CCO3` was tested, and the “% Inhibition @ 10 uM” value was 4.44%. For `Fc1ccccc1N1CCN(Cc2ccccc2)CC1`, the “% Inhibition @ 10 uM” value was -3.71%. For `CC(NC(=O)Cn1nc(-c2ccc(Cl)cc2)ccc1=O)c1ccccc1` (stereo not drawn), the “% Inhibition @ 10 uM” value was 1.62%. For `O=C(CN(c1ccccc1F)S(=O)(=O)c1ccccc1)N1CCOCC1`, the “% Inhibition @ 10 uM” value was -3.92%. For `Cc1ccc(NC(=O)CSC2=C(C#N)C(c3cccs3)CC(=O)N2)cc1` (stereo not drawn), the “% Inhibition @ 10 uM” value was -2.91%. In the case of `COc1ccc(-c2cc(C(F)F)n3ncc(C(=O)N4CCN(c5ccc(OC)cc5)CC4)c3n2)cc1`, the “% Inhibition @ 10 uM” value is reported as -3.65%. In the case of `O=S(=O)(c1ccc(Cl)cc1)n1c(C2CCCCC2)nc2ccccc21`, the “% Inhibition @ 10 uM” value is reported as 1.5%. `Cc1oc(C)c(C(=O)NC(Cc2ccccc2)C(=O)O)c1C(=O)NC(Cc1ccccc1)C(=O)O` (stereo not drawn) was tested, and the “% Inhibition @ 10 uM” value was 0.9%. In the case of `Cc1cc(=O)oc2c(O)c(O)ccc12`, the “% Inhibition @ 10 uM” value is reported as -3.65%. For `CCCCOc1cccc(C(=O)Nc2cccc(OC)c2)c1`, the “% Inhibition @ 10 uM” value was -2.6%. For `CN1C(=O)c2ccc(C(=O)Nc3ccc(Br)cc3C(=O)O)cc2C1=O`, the “% Inhibition @ 10 uM” value was -14.3%. `CCc1[nH]nc2c1C(c1ccc(OC)c(OC)c1)C(C#N)=C(N)O2` (stereo not drawn) was tested, and the “% Inhibition @ 10 uM” value was 0.746%. In the case of `C=CCn1c(SCC#N)nc2sc3c(c2c1=O)CCC3`, the “% Inhibition @ 10 uM” value is reported as 4.33%. `C=CCOc1ccc(C2C3=C(O)CC(C)(C)CC3=NC3=C2C(=O)CC(C)(C)C3)cc1OCC` (stereo not drawn) was tested, and the “% Inhibition @ 10 uM” value was -0.759%. For `CC(=O)c1c(C)n(-c2ccc(C)cc2)c2ccc(O)cc12`, the “% Inhibition @ 10 uM” value was -2.2%. `Nc1[nH]nc2c1C1(CCCC1)Cc1ccccc1-2` was tested, and the “% Inhibition @ 10 uM” value was -7.7%. `CCOc1ccccc1-c1nnc(-c2ccccc2C)o1` was tested, and the “% Inhibition @ 10 uM” value was 0.947%. For `COc1ccc(-n2ncc3c(NCCc4ccccc4)ncnc32)cc1`, the “% Inhibition @ 10 uM” value was 4.46%. `O=C(Nc1ccc2c(c1)Cc1ccccc1-2)c1ccco1` was tested, and the “% Inhibition @ 10 uM” value was -4.92%. With `O=C(O)/C(=C/c1cccs1)NC(=O)c1ccccc1` the “% Inhibition @ 10 uM” value was 4.98%. With `COc1cc2c(cc1OC)C(c1cccc(F)c1)NCC2` (stereo not drawn) the “% Inhibition @ 10 uM” value was 10.1%. With `OCCN(Cc1ccccc1)Cc1ccc(-c2ccccc2)cc1` the “% Inhibition @ 10 uM” value was 4.8%. In the case of `O=C(CCNS(=O)(=O)c1ccc(Cl)cc1)NCCc1ccccc1`, the “% Inhibition @ 10 uM” value is reported as -5.64%. With `C#C[C@H](CCC)NC(=O)[C@H](Cc1c(F)cccc1F)NC(=O)c1ccc(-c2cc(C(=O)O)ccc2Cl)cc1` the “% Inhibition @ 10 uM” value was -5.2%. With `COc1ccc(CCNC(=O)CSCc2ccc(F)cc2)cc1OC` the “% Inhibition @ 10 uM” value was 1.97%. In the case of `N#Cc1noc(C(=O)c2ccccc2)c1N`, the “% Inhibition @ 10 uM” value is reported as 5.13%. `Cc1oc(-c2ccccc2F)nc1CS(=O)(=O)CC(=O)N1CCCCCC1` was tested, and the “% Inhibition @ 10 uM” value was -1.89%. `Oc1nc(NCc2ccco2)nnc1Cc1ccccc1` was tested, and the “% Inhibition @ 10 uM” value was 0.457%. In the case of `COc1cc2c(cc1OC)CN(Cc1ccoc1)CC2`, the “% Inhibition @ 10 uM” value is reported as 5.37%. In the case of `Cc1nnc(NC(=O)c2cc(S(=O)(=O)N3CCOCC3)ccc2Cl)s1`, the “% Inhibition @ 10 uM” value is reported as -10.2%. For `COCC(C)NCc1ccc(Br)cc1` (stereo not drawn), the “% Inhibition @ 10 uM” value was -2.91%. With `CCOC(=O)N1CCN(C(=O)c2cc(-c3ccc(C)cc3C)[nH]n2)CC1` the “% Inhibition @ 10 uM” value was 5.56%. With `CCOC(=O)c1sc2ccccc2c1S(=O)(=O)NCc1ccccc1` the “% Inhibition @ 10 uM” value was -2.29%. For `Cc1ccc(N2C(=O)CC(NCCc3ccccc3Cl)C2=O)cc1` (stereo not drawn), the “% Inhibition @ 10 uM” value was 1.28%. In the case of `CC(=O)Nc1ccc(Nc2nc(-c3c(C)nc4cc(C)ccn34)cs2)cc1`, the “% Inhibition @ 10 uM” value is reported as 25.6%.
